Whole data set: some 33,000 sequences, median “E-score (-0.5 to 0.5)” near -0.012, cut for the highest 2% near 0.27. This is one part of the list.
Target: T1, Vhr1 (UniProt P40522)
T1 sequence: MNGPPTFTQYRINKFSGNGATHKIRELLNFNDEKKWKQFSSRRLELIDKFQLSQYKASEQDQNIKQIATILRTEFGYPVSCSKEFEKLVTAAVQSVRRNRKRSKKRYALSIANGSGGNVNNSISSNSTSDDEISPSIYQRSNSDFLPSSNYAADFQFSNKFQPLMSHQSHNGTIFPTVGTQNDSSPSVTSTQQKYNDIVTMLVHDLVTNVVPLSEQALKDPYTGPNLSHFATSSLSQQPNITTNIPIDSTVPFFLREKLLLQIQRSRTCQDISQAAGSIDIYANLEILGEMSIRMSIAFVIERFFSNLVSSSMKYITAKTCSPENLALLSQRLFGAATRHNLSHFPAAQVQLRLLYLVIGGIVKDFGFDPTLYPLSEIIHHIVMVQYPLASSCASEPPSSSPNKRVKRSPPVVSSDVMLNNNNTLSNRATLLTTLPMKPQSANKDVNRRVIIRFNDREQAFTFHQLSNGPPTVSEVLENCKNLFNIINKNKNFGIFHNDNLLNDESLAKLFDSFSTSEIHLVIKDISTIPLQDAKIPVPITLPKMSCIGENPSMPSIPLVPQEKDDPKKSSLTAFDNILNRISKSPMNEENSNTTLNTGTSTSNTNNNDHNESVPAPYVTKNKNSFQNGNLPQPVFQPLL
Experiment: PBM E-score (8-mer binding enrichment) (E-score (-0.5 to 0.5)); higher = stronger / more preferred TF binding; most listed sequences are background and not binding sites
Details: protein concentration: 200 nM; construct: GST-full length
Method in brief: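 For each ungapped eight-base word taken together with its reverse complement, the Universal PBM Analysis Suite assigned an E-score. Binding data came from GST-tagged yeast transcription factors, applied at about 100-200 nM, on universal all-10-mer Agilent arrays made double-stranded by primer extension. Fluorescent anti-GST marked bound protein, and scans were normalised with masliner.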

Sequence | PBM E-score
GCGCGTGA | 0.149
AAAACCAC | -0.109
GGGTACAC | 0.0632
CTCCATAC | 0.0791
ACACTAGG | 0.13
GACGCTTA | -0.197
GGCACGGA | -0.00459
CCTCTCTA | -0.27
CTCTTGTA | 0.0809
GCTCCAGC | 0.0134
AGTCGTAA | 0.16
GCCACGGC | -0.0877
GGGAGCAA | -0.143
GAAGCTCC | -0.0945
CCCAAGCA | 0.109
CATACAGC | -0.0846
GGTAAAAA | -0.0946
GCTAAAGA | 0.0836
TCTGATAA | -0.171
TATCCAAA | 0.118
AAGGACAC | -0.0556
ACTGTCGC | 0.0294
CACGCGGC | 0.00996
CAATACTC | 0.137
ATGAGCTC | 0.134

Sequence | PBM E-score
CGATGGGC | 0.297
CTCTGTTC | 0.0833
CTAGAAAA | -0.223
GGATAATA | 0.0366
AAAGATTC | 0.0547
AAGGTGAC | 0.0791
GTCGCAAC | 0.125
CTAACATA | 0.0142
CACAAAGA | -0.0121
GGCTTCGA | -0.0524
ACGTAGAT | -0.00676
GATTCCAC | 0.191
AGGACCAC | 0.13
GTCCTTTA | -0.0543
GGCGGGAC | 0.0887
ACCTCGTC | 0.0949
CGCGCCAG | 0.182
GTGCCTCA | -0.151
GGTGGAAA | -0.209
CGGGAGTA | 0.00502
GCAACAGC | -0.235
GGGCCCAC | -0.0236
ACCGCTCA | 0.128
ATTTCGAC | -0.102
AATTTGAT | -0.0207

Sequence | PBM E-score
CGTCGCTC | -0.142
TTCAGCAA | -0.134
ACAACCGC | 0.234
TATCGGCA | -0.218
CCCCAATC | 0.126
ACTCGGAA | 0.0207
GGGGTGCA | 0.106
CGACTGCG | 0.188
ACCATATA | 0.132
CGGATAAG | -0.0104
CGTGGCCC | -0.222
AATCTCGA | 0.0432
AAGAGCGA | 0.0267
GCAATCCA | 0.0419
GAAACTCA | 0.00586
GTCATGAC | 0.31
ACCAAATG | 0.00534
ACCCTAGT | 0.0534
CGAAACAA | 0.079
AGACACGC | 0.0967
AATGGTAT | 0.0874
GAGACGCC | -0.0261
GTAACTCA | 0.0483
TCCAGACA | -0.112
GACTTGTA | 0.0565

Sequence | PBM E-score
AGCCCAGG | -0.322
AACTGAGT | 0.182
CCTCCTCA | -0.1
AAAGTGCA | -0.22
ACCCATAC | 0.222
ACTGCCCT | -0.0286
AAAAAGGC | -0.187
CAAACGGA | -0.171
ACACTGCG | 0.0586
CTACCTCC | 0.241
AAGGAGGG | 0.0971
ATGTGATG | -0.0159
TCACCGGA | 0.0906
GGAGAAAC | 0.0248
CGCGGCGC | 0.197
ACATAGAT | -0.0848
CAAGAGAC | -0.138
ATCGCTGA | 0.00777
CCCCACAC | 0.0119
CCCCTTTC | -0.177
TAGCTACA | 0.0139
TAGCGAAA | -0.114
ACAGCTGT | 0.0493
TCGGCCGA | 0.252
ATCAAAGC | -0.089

Sequence | PBM E-score
CCTCAGTC | 0.0647
GATGAAAA | 0.0464
CTTCAACA | -0.00632
AAATGCTC | -0.219
CTTCTTAA | -0.11
AGCAATTC | -0.123
AGGGCGCG | 0.00533
TGGGCTAA | -0.147
AACGGTCG | -0.028
CCTCGGCG | 0.283
AGGAGCCC | -0.162
AAGTCGAC | 0.17
AAAACACA | 0.0118
AAAAAAAG | -0.0686
ATTCCATA | 0.107
AAACTCAG | -0.108
CGCCCGAA | -0.0969
CCACCATC | 0.0312
CGACGGCC | -0.0896
ACGAGCCG | 0.119
ACAAGCTA | -0.14
ACTAGGTC | 0.223
GATCGCCC | 0.085
CGATTTAC | -0.168
AATGTTTA | -0.0247

Sequence | PBM E-score
ATTACCCA | 0.262
TCTTATCA | -0.113
ATGCAGCA | 0.079
CAACGGTG | -0.0847
CACCGCGA | 0.0982
ACGTCAAT | -0.0555
AAAATTTC | -0.378
ACGGGGTG | 0.256
TGAATTAA | 0.027
CCTTCACC | -0.144
AGATTGGG | 0.0236
AAAACGCT | -0.366
AGGAATTC | -0.0252
CAACTATA | -0.115
ACCGTCCA | 0.0545
CAAGAAAC | 0.0519
ATGCGGGC | 0.115
CGGTGTTA | 0.147
ACATCAGT | 0.219
GTCCTGCA | -0.247
ACATTTCG | -0.193
ATGGTCCG | 0.175
CCCCCCGA | -0.252
CGTACAAC | 0.11
ATGCACGC | -0.0239

Sequence | PBM E-score
ACCAGGCT | -0.00278
GGTTGGAA | -0.0726
TGCCCACA | -0.134
GCCCCGTA | -0.312
GGCCACTA | -0.00131
CAACCCAA | -0.131
TCCTACAA | 0.107
AGTCGCAG | 0.24
GAAAGTTA | -0.0482
CATGAGCG | 0.0979
GCCCTAGA | -0.332
GACCTATC | 0.0692
AATAAACT | 0.0571
AAGCACGC | 0.0803
ATGAGTAG | 0.189
ACGTTGTC | -0.0959
CGAGACAG | 0.235
TATAGCCA | 0.119
CGGCGGCA | -0.0208
CGGCAGTC | 0.185
CCAGTTCC | -0.0688
AAAGATCT | -0.249

— the supplement of paper PMC3334620
